The text below walks through data of patent US9353185B2, “Antibodies” (Affitech Research AS, priority 2010, dated 2016).

Test [1] concerns the target T1, CXCR4 (Homo sapiens, UniProt P61073).
T1 construct: CRL-1596 (Ramos); host or cells: Ramos, Jurkat 6E-1, CCRF-CEM
Nature of the test: Interference with ligand binding: scFv binding to Jurkat and Ramos cells without and with SDF-1α or AMD3100. Conditions: transfected and naturally CXCR4 expressing cells. From the text:
One molecule is SDF-1, the natural ligand to CXCR4, the other one is AMD3100, a peptide derived highly specific competetive inhibitor to SDF-1α binding to CXCR4.
Jurkat and Ramos cells were maintained as described above.
The scFv clones were expressed in large scale and purified as monomer fraction by SEC fractionation. The natural CXCR4^+ expressing cell lines Jurkat and Ramos were harvested from the culture flasks, washed 2 times with PBS supplemented with 0.2% BSA and 0.09% NaN3 buffer and aliquoted at 1×10^5 cells per well into V-shaped 96-well plates (Greiner Bio-One, Frickenhausen, Germany). Cells were pelleted by centrifugation (400 g, 5 min) and then incubated for 60 min at 4° C. with 1 μg SDF-1α (PeproTech EC, London, UK) and 50 μl scFv diluted to 10 μg/ml in PBS supplemented with 0.2% BSA and 0.09% NaN3 buffer, both added at the same time to the cells. A sample without ligand or 157 μg AMD3100 served as control for the specificity of CXCR4 since AMD3100 only binds to this receptor. AMD3100 was added simultaneously with the scFv to the cells. […]

Test [2] concerns the target T1, CXCR4. Nature of the test: Interference with ligand binding: IgG binding to CCRF-CEM cells without and with SDF-1α. The protocol: CCRF-CEM were maintained as described above.
Cells of the natural CXCR4^+ expressing cell line CCRF-CEM were harvested from the culture flasks, washed 2 times with PBS supplemented with 0.2% BSA and 0.09% NaN3 buffer and aliquoted at 1×10^5 cells per well into V-shaped 96-well plates (Greiner Bio-One, Frickenhausen, Germany). Cells were pelleted by centrifugation (350 g, 5 min) and then incubated for 60 min at 4° C. with 4, 1, 0.5 μg SDF-1α (PeproTech EC, London, UK) and 50 μl IgG diluted to 2 μg/ml in PBS supplemented with 0.2% BSA and 0.09% NaN3 buffer, both added at the same time to the cells. Samples without ligand served as control. The supernatants were aspirated after a centrifugation step at 350 g for 5 min and the cells were washed another two times with 150 μl PBS supplemented with 0.2% BSA and 0.09% NaN3 and centrifugation steps (5 min at 350 g) before being stained with RPE-conjugated goat anti-human IgG (AbD seroTec #204009) diluted to 2.5 μg/ml in with PBS supplemented with 0.2% BSA and 0.09% NaN3 and incubated for 30 minutes at 4° C. The cells were washed again and re-suspended in 200 μl PBS with 0.2% BSA and 0.09% NaN3 and transferred to a U-shaped 96-well plate (Corning) for flow cytometry using an EasyCyte device (Guava Technologies, Hayward, Calif., USA).

Test [3] addresses T1, CXCR4. Description: Inhibition of SDF-1α ligand-induced migration of CCRF-CEM cells (Boyden chamber). The test is classed as cell-based. The protocol:
The anti-GFP scFv fragment was used as a negative control and anti-cMyc antibody was used for cross-linking both scFvs to mimic the effect of the antibodies in IgG format.
CCRF-CEM cells were maintained as described above.
CCRF-CEM target cells were sedimented by centrifugation and washed twice in RPMI-1640 culture medium without FCS. The cell density was then adjusted to 1×10^6 cells/ml and 60 ml of this suspension was mixed with 38 μl BATDA [bis(acetoxymethyl) 2,2′:6′,2″-terpyridine-6,6″-dicarboxylate] (Perkin Elmer, Waltham, Mass.). The cells were incubated with BATDA at 37° C. for 20 min with mixing by gently inverting the vessel every 10 min. The cells were washed three times in RPMI-1640 with 20% FCS, and then re-suspended in RPMI-1640/20% FCS to a final density 2×10^7 cells/ml. […] Anti-GFP scFv was used at 32 μg/ml as a negative control in combination with 20 μg/ml anti-cMyc antibody. In parallel, 30 μl of RPMI containing 0.15 nM SDF-1α ligand was added into the lower compartment of a ChemoTX 96 well Boyden chamber plate (Neuro Probe, Gaithersburg, Md.). 50 μl of the antibody-coated BATDA-labelled cells were then added to the upper compartment of the ChemoTX 96 chamber plate and incubated in presence at 37° C. for 2.5 hr. The cells above the filter were then removed and the filter was washed with PBS followed by centrifugation of the plate to collect all the cells in the lower chamber before removing the filter. The plate was then inverted on the top of a V-shaped plate followed by centrifugation. […] The samples were transferred to a black 96-well microtiter plate, mixed with 200 μl Europium Solution (Perkin Elmer), and analyzed for fluorescence (excitation at 340 nm, emission at 613 nm, lag-time 0.4 ms and integration time 0.4 ms) using a TECAN M200 plate reader. For each antibody concentration, the ratio of signals in presence/absence of scFv and the percentage of migration inhibition was calculated. The data were plotted and analysed by non-linear regression curve fit using the “log(inhibitor) vs. response” model of software Prism (GraphPad).

T1 sequence (P61073 whole entry): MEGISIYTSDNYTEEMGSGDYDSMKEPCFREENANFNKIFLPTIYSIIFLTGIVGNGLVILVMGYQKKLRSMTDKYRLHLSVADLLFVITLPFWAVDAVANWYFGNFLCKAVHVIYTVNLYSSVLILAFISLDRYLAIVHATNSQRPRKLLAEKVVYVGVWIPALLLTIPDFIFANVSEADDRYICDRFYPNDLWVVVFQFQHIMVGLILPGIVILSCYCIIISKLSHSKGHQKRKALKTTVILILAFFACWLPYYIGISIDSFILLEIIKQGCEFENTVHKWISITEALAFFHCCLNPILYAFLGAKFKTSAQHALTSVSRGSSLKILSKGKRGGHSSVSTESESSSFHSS

B1: C-9P21: human anti-CXCR4 antibody; scFv SEQ ID NO: 35; IgG1/kappa heavy chain SEQ ID NO: 108, light chain SEQ ID NO: 109 (antibody)
heavy: QVQLQESGGGLVHPGGSLRLSCAASGFTFSSYWMHWVRQAPGKGLVWVSRINSDGSSTSYADSVKGRFTISRDNAKNTLYLQMNSLRAEDTAVYYCARKILGVGARSRRYFDYWGQGTMVTVSS[human IgG1 constant region left out]
light: ETTLTQSPGTLSLSPGERATLSCRASQSVVSNYLAWYQQKPGQAPRLLISGASNRATGISDRFSGSGSGADFTLTISRVEPEDSAVYYCQQFDKSTWTFGQGTKVEIKRTVAAPSVFIFPPSDEQLKSGTASVVCLLNNFYPREAKVQWKVDNALQSGNSQESVTEQDSKDSTYSLSSTLTLSKADYEKHKVYACEVTHQGLSSPVTKSFNRGEC
modifications: antibody sequence
For the molecule B1, the “binding to all cell types tested” value in the test with CXCR4 [1] is on record as “excellent binding”. Besides, in the test with CXCR4 [2] (IgG 2 μg/ml (0.1 μg per 10^5 cells)), the “specific binding to CCRF-CEM cell line” value is listed as “specific binding”. In the test with CXCR4 [2] (IgG, 4, 1, 0.5 μg SDF-1α, CCRF-CEM cells), the “inhibition of antibody binding by SDF-1” value was “inhibited by SDF-1”. Further, the “inhibition of cell migration” value with CXCR4 [3] (scFv concentration 20 μg/ml (0.7 μM)) turned out to be 100%. Also, the “IC50 (antibody concentration leading to 50% inhibition of cell migration)” value in the test with CXCR4 [3] (scFv cross-linked with anti-cMyc antibody, 0.15 nM SDF-1α) came out at 2.9 µg/mL. For the same molecule, the IC50 (as a rule, the concentration needed to halve the response being measured) with CXCR4 [3] (scFv format, molar equivalent of 2.9 μg/ml) was roughly 100 nM.
